The other results are listed elsewhere or left out. The list includes weakly bound sequences.
The sequences below were run against T1, MBP-FoxP3dN (UniProt Q99JB6) (assay: PD-seq (MBP pull-down with sequencing)). Conditions: 20 mM Tris-HCl pH 7.5, 100 mM NaCl, 1.5 mM MgCl2, 0.4 uM protein, 0.1 uM dsDNA library, 30 min, room temperature, amylose pull-down; high values mean tight binding; double strand, one strand shown.
T1 sequence: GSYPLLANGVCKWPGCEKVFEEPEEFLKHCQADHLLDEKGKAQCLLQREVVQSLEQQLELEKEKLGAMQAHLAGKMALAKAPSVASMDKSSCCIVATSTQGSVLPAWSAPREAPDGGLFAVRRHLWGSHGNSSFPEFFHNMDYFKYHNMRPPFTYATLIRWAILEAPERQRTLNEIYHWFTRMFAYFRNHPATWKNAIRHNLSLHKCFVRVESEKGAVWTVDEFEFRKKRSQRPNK

Sequence | binding signal (RPM ratio (pull-down/input))
GATGATTGTTCTCCCAGCTGATGAATTAACTGTCTCGAGTAAACAAATTTTCCTAATCTTTCTGTTCAAGCGCCATCTAC | 0.5
GATGATTGTTCTCCCAGCTGATGAATTCGACGGTTCGAGTAAACAAATTTTCCTAATCTTTCTGTTCAAGCGCCATCTAC | 0.409
GATGATTGTTCTCCCAGCTGATGAATTTAGGGTTTCGAGTAAACAAATTTTCCTAATCTTTCTGTTCAAGCGCCATCTAC | 1.06
GATGATTGTTCTCCCAGCTGATGAATTGCCCTCCTCGAGTAAACAAATTTTCCTAATCTTTCTGTTCAAGCGCCATCTAC | 0.471
GATGATTGTTCTCCCAGCTGATGAATTCCTAAGATCGAGTAAACAAATTTTCCTAATCTTTCTGTTCAAGCGCCATCTAC | 0.174
GATGATTGTTCTCCCAGCTGATGAATTACCCGCCTCGAGTAAACAAATTTTCCTAATCTTTCTGTTCAAGCGCCATCTAC | 0.472
GATGATTGTTCTCCCAGCTGATGAATTGCCAGGTTCGAGTAAACAAATTTTCCTAATCTTTCTGTTCAAGCGCCATCTAC | 0.536
GATGATTGTTCTCCCAGCTGATGAATTCTCAGAGTCGAGTAAACAAATTTTCCTAATCTTTCTGTTCAAGCGCCATCTAC | 0.203
GATGATTGTTCTCCCAGCTGATGAATTCAATGTTTCGAGTAAACAAATTTTCCTAATCTTTCTGTTCAAGCGCCATCTAC | 1.92
GATGATTGTTCTCCCAGCTGATGAATTGATAGGCTCGAGTAAACAAATTTTCCTAATCTTTCTGTTCAAGCGCCATCTAC | 0.394
GATGATTGTTCTCCCAGCTGATGAATTCTCCCGCTCGAGTAAACAAATTTTCCTAATCTTTCTGTTCAAGCGCCATCTAC | 0.24
GATGATTGTTCTCCCAGCTGATGAATTGTTTGCGTCGAGTAAACAAATTTTCCTAATCTTTCTGTTCAAGCGCCATCTAC | 6.41
GATGATTGTTCTCCCAGCTGATGAATTTCTAAGCTCGAGTAAACAAATTTTCCTAATCTTTCTGTTCAAGCGCCATCTAC | 0.219
GATGATTGTTCTCCCAGCTGATGAATTTGGAGGATCGAGTAAACAAATTTTCCTAATCTTTCTGTTCAAGCGCCATCTAC | 0.321
GATGATTGTTCTCCCAGCTGATGAATTCGTCGAATCGAGTAAACAAATTTTCCTAATCTTTCTGTTCAAGCGCCATCTAC | 0.229
GATGATTGTTCTCCCAGCTGATGAATTTGAAAATTCGAGTAAACAAATTTTCCTAATCTTTCTGTTCAAGCGCCATCTAC | 0.171
GATGATTGTTCTCCCAGCTGATGAATTCCGTATCTCGAGTAAACAAATTTTCCTAATCTTTCTGTTCAAGCGCCATCTAC | 4.26
GATGATTGTTCTCCCAGCTGATGAATTAGGTATTTCGAGTAAACAAATTTTCCTAATCTTTCTGTTCAAGCGCCATCTAC | 2.06
GATGATTGTTCTCCCAGCTGATGAATTTTTCTACTCGAGTAAACAAATTTTCCTAATCTTTCTGTTCAAGCGCCATCTAC | 0.279
GATGATTGTTCTCCCAGCTGATGAATTGTCGCGCTCGAGTAAACAAATTTTCCTAATCTTTCTGTTCAAGCGCCATCTAC | 0.667
GATGATTGTTCTCCCAGCTGATGAATTTAATGCTTCGAGTAAACAAATTTTCCTAATCTTTCTGTTCAAGCGCCATCTAC | 1.55

Sequence | binding signal (RPM ratio (pull-down/input))
GATGATTGTTCTCCCAGCTGATGAATTAGACACGTCGAGTAAACAAATTTTCCTAATCTTTCTGTTCAAGCGCCATCTAC | 0.515
GATGATTGTTCTCCCAGCTGATGAATTAGACGATTCGAGTAAACAAATTTTCCTAATCTTTCTGTTCAAGCGCCATCTAC | 0.346
GATGATTGTTCTCCCAGCTGATGAATTTTGTGGGTCGAGTAAACAAATTTTCCTAATCTTTCTGTTCAAGCGCCATCTAC | 1.96
GATGATTGTTCTCCCAGCTGATGAATTGCACTCCTCGAGTAAACAAATTTTCCTAATCTTTCTGTTCAAGCGCCATCTAC | 1.02
GATGATTGTTCTCCCAGCTGATGAATTTTGTGACTCGAGTAAACAAATTTTCCTAATCTTTCTGTTCAAGCGCCATCTAC | 2.36
GATGATTGTTCTCCCAGCTGATGAATTAGGGGCTTCGAGTAAACAAATTTTCCTAATCTTTCTGTTCAAGCGCCATCTAC | 0.434
GATGATTGTTCTCCCAGCTGATGAATTAGTGCGCTCGAGTAAACAAATTTTCCTAATCTTTCTGTTCAAGCGCCATCTAC | 0.74
GATGATTGTTCTCCCAGCTGATGAATTCACATTCTCGAGTAAACAAATTTTCCTAATCTTTCTGTTCAAGCGCCATCTAC | 0.482
GATGATTGTTCTCCCAGCTGATGAATTCGAGGTATCGAGTAAACAAATTTTCCTAATCTTTCTGTTCAAGCGCCATCTAC | 0.576
GATGATTGTTCTCCCAGCTGATGAATTCAGGTGATCGAGTAAACAAATTTTCCTAATCTTTCTGTTCAAGCGCCATCTAC | 0.457
GATGATTGTTCTCCCAGCTGATGAATTGCATGCATCGAGTAAACAAATTTTCCTAATCTTTCTGTTCAAGCGCCATCTAC | 3.74
GATGATTGTTCTCCCAGCTGATGAATTCTTTCAATCGAGTAAACAAATTTTCCTAATCTTTCTGTTCAAGCGCCATCTAC | 0.248
GATGATTGTTCTCCCAGCTGATGAATTACAGGTCTCGAGTAAACAAATTTTCCTAATCTTTCTGTTCAAGCGCCATCTAC | 0.596
GATGATTGTTCTCCCAGCTGATGAATTACAAGCTTCGAGTAAACAAATTTTCCTAATCTTTCTGTTCAAGCGCCATCTAC | 0.518
GATGATTGTTCTCCCAGCTGATGAATTACTGCACTCGAGTAAACAAATTTTCCTAATCTTTCTGTTCAAGCGCCATCTAC | 0.687
GATGATTGTTCTCCCAGCTGATGAATTGGGCTATTCGAGTAAACAAATTTTCCTAATCTTTCTGTTCAAGCGCCATCTAC | 1.48
GATGATTGTTCTCCCAGCTGATGAATTACCACCATCGAGTAAACAAATTTTCCTAATCTTTCTGTTCAAGCGCCATCTAC | 0.513
GATGATTGTTCTCCCAGCTGATGAATTTCCGCTTTCGAGTAAACAAATTTTCCTAATCTTTCTGTTCAAGCGCCATCTAC | 1.07
GATGATTGTTCTCCCAGCTGATGAATTAATGGGGTCGAGTAAACAAATTTTCCTAATCTTTCTGTTCAAGCGCCATCTAC | 0.393
GATGATTGTTCTCCCAGCTGATGAATTTCACCAATCGAGTAAACAAATTTTCCTAATCTTTCTGTTCAAGCGCCATCTAC | 0.259
GATGATTGTTCTCCCAGCTGATGAATTCGCGGTGTCGAGTAAACAAATTTTCCTAATCTTTCTGTTCAAGCGCCATCTAC | 0.67

Sequence | binding signal (RPM ratio (pull-down/input))
GATGATTGTTCTCCCAGCTGATGAATTCATACGGTCGAGTAAACAAATTTTCCTAATCTTTCTGTTCAAGCGCCATCTAC | 0.357
GATGATTGTTCTCCCAGCTGATGAATTCGATTCTTCGAGTAAACAAATTTTCCTAATCTTTCTGTTCAAGCGCCATCTAC | 1.16
GATGATTGTTCTCCCAGCTGATGAATTCTCAGGCTCGAGTAAACAAATTTTCCTAATCTTTCTGTTCAAGCGCCATCTAC | 0.216
GATGATTGTTCTCCCAGCTGATGAATTGAATCACTCGAGTAAACAAATTTTCCTAATCTTTCTGTTCAAGCGCCATCTAC | 0.551
GATGATTGTTCTCCCAGCTGATGAATTTGGAGCCTCGAGTAAACAAATTTTCCTAATCTTTCTGTTCAAGCGCCATCTAC | 0.542
GATGATTGTTCTCCCAGCTGATGAATTTCTGCTATCGAGTAAACAAATTTTCCTAATCTTTCTGTTCAAGCGCCATCTAC | 0.604
GATGATTGTTCTCCCAGCTGATGAATTACGCGTGTCGAGTAAACAAATTTTCCTAATCTTTCTGTTCAAGCGCCATCTAC | 4.31
GATGATTGTTCTCCCAGCTGATGAATTTCGATCCTCGAGTAAACAAATTTTCCTAATCTTTCTGTTCAAGCGCCATCTAC | 0.432
GATGATTGTTCTCCCAGCTGATGAATTGTTAAAGTCGAGTAAACAAATTTTCCTAATCTTTCTGTTCAAGCGCCATCTAC | 0.28
GATGATTGTTCTCCCAGCTGATGAATTCGTCCTATCGAGTAAACAAATTTTCCTAATCTTTCTGTTCAAGCGCCATCTAC | 0.644
GATGATTGTTCTCCCAGCTGATGAATTAGCACTCTCGAGTAAACAAATTTTCCTAATCTTTCTGTTCAAGCGCCATCTAC | 0.493
GATGATTGTTCTCCCAGCTGATGAATTACCGGAATCGAGTAAACAAATTTTCCTAATCTTTCTGTTCAAGCGCCATCTAC | 0.214
GATGATTGTTCTCCCAGCTGATGAATTGTATCAGTCGAGTAAACAAATTTTCCTAATCTTTCTGTTCAAGCGCCATCTAC | 1.09
GATGATTGTTCTCCCAGCTGATGAATTGATGCTGTCGAGTAAACAAATTTTCCTAATCTTTCTGTTCAAGCGCCATCTAC | 2.03
GATGATTGTTCTCCCAGCTGATGAATTAATGACCTCGAGTAAACAAATTTTCCTAATCTTTCTGTTCAAGCGCCATCTAC | 0.385
GATGATTGTTCTCCCAGCTGATGAATTTGTTACATCGAGTAAACAAATTTTCCTAATCTTTCTGTTCAAGCGCCATCTAC | 2.88
GATGATTGTTCTCCCAGCTGATGAATTCGGTGATTCGAGTAAACAAATTTTCCTAATCTTTCTGTTCAAGCGCCATCTAC | 1.06
GATGATTGTTCTCCCAGCTGATGAATTCAGATCTTCGAGTAAACAAATTTTCCTAATCTTTCTGTTCAAGCGCCATCTAC | 0.25
GATGATTGTTCTCCCAGCTGATGAATTGATGTAATCGAGTAAACAAATTTTCCTAATCTTTCTGTTCAAGCGCCATCTAC | 1.25
GATGATTGTTCTCCCAGCTGATGAATTCCCCTTATCGAGTAAACAAATTTTCCTAATCTTTCTGTTCAAGCGCCATCTAC | 0.349
GATGATTGTTCTCCCAGCTGATGAATTCTAAGTCTCGAGTAAACAAATTTTCCTAATCTTTCTGTTCAAGCGCCATCTAC | 0.36

Source: paper PMC12820563
